# Source: PubChem BioAssay AID886 (National Center for Advancing Translational Sciences (NCATS), 2007)
# Several values for one entry are separate records, joined by “and”; a condition that tells them apart may be missing. Identical values can stand only once. In all, about 73,000 compounds went through this assay and about 2,500 (3.4%) were called active. The shares of active, inactive and inconclusive entries below differ from those in the screen. Calls follow the shape of the dose curve; as a rule, active = well fitted inhibition curve with a large enough effect; inconclusive = small, poorly fitted or top-dose-only effect; inactive = no such curve, though single readings can be large or run the other way. A potency beside an inconclusive call is a rough fit, not a confirmed value.
# Target: 3-hydroxyacyl-CoA dehydrogenase type-2 (Homo sapiens) (UniProt Q99714)
# Assay: qHTS Assay for Inhibitors of HADH2 (Hydroxyacyl-Coenzyme A Dehydrogenase, Type II); also: nearly all actives have a fitted effect of over 60% in size
# Details: recombinant HADH2, NADH fluorescence, beta-hydroxybutyryl-CoA; activity change, negative = inhibition: at 57.1 µM (top of the series)
# Method in brief: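 His-tagged recombinant enzyme from E. coli, 20 nM, preincubated 15 min RT with compound; reaction started with 1 mM NAD+ and 90 uM beta-hydroxybutyryl-CoA in 100 mM Tris-HCl pH 9.0. NADH fluorescence (ex 360/em 450) read over 4 min; last-minus-first difference.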
# % is scaled to controls: 0 for no effect and ±100 for the full control effect; potency is read from the fitted curve at half-maximal effect; tags tell the direction and shape of the fitted curve.
# Sequence of UniProt Q99714 (Q99714 whole entry, looked up): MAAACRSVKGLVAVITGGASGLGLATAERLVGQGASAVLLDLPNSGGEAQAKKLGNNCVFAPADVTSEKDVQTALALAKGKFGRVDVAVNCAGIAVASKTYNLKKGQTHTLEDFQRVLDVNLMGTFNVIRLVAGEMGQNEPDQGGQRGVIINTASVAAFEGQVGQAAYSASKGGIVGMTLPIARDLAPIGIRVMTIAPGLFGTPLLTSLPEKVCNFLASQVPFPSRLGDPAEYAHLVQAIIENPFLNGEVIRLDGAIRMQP
# Sequence of UniProt Q99714 (Q99714 whole entry, looked up): as above
SMILES,"activity change, negative = inhibition",Potency
CCOC(=O)C1=C(CSc2nncn2C)NC(=O)NC1c1cc(OCC)ccc1OCC (stereo not given),inactive: 4.56%,–
Cn1c(=O)cc(OCC(=O)NCCCN2CCN(c3ccccc3F)CC2)c2ccccc21,inactive: -2.39%,–
Cc1[nH]c2ccccc2c1C(=O)CSCC(=O)O,–,"inconclusive: 39.8 µM [inhibitor, single point]"
CO[C@@H]1/C=C\CC(=O)N2CCC[C@@H]2C(=O)OC[C@H](C)C(=O)OC[C@H]1C,inactive: 1.92% [at 11.4 µM],–
CCOc1cccc(=O)c2c(C)n(CC3CCCO3)c(C)c12 (stereo not given),–,"inconclusive: 25.1 µM [inhibitor, partial curve]"
CCOC(=O)C1=CN(C)C=C(C(=O)OCC)C1c1ccsc1,–,active: 31.6 µM
COc1ccccc1-c1c(C)nn2c(N3CCCCCC3)cc(C)nc12,–,"inconclusive: 39.8 µM [inhibitor, single point]"
Cc1cccc(NC(=O)c2cc(-c3ccco3)nc3ccccc23)n1,–,"inconclusive: 39.8 µM [inhibitor, single point]"
COc1ccc(CC(=O)N2CCNC2=O)cc1,–,active: 20 µM
CCc1cccc2nc3c(c([Si](C)(C)C)c12)Cn1c-3cccc1=O,–,"inconclusive: 39.8 µM [inhibitor, single point]"
Cc1ccc(C2C(C#N)=C(N)SC(N)=C2C#N)cc1,–,active: 20 µM
CCOC(=O)c1c(NC(=O)c2cccs2)sc(C)c1CC,–,active: 25.1 µM
O=C(COC(=O)C1CC(=O)N(Cc2ccco2)C1)c1ccc(OC(=O)c2ccco2)cc1 (stereo not given),–,"inconclusive: 39.8 µM [inhibitor, single point]"
COc1cccc(NC(=O)[C@@H]2CCCN2C(=O)C2CCN(S(=O)(=O)c3ccc(C)cc3)CC2)c1,inactive: -5.15%,–
c1ccc(COCc2ccccc2)cc1,inactive: 4.39%,–
O=C(NC1(C(F)(F)F)NC(=O)N(Cc2ccco2)C1=O)c1cccs1 (stereo not given),–,"inconclusive: 2.51 µM [inhibitor, partial curve]"
CCCCC(=O)OCCNC(=O)c1cc2ccccc2oc1=O,inactive: -5.4% [at 11.4 µM],–
CCCc1c(-c2ccc(O)cc2)nn(-c2ccc(O)cc2)c1-c1ccc(O)cc1,–,active: 10 µM and active: 3.16 µM
CCOc1ccc2[nH]c(=O)c(C(c3nnnn3C3CCCCC3)N3CCN(CC)CC3)cc2c1 (stereo not given),–,"inconclusive: 39.8 µM [inhibitor, single point]"
COc1ccc2nc3c(c([Si](C)(C)C(C)(C)C)c2c1)Cn1c-3cccc1=O,–,"inconclusive: 12.6 µM [inhibitor, partial curve]"
O=C(NCc1ccccc1)N(Cc1cc2cc3c(cc2[nH]c1=O)OCCO3)CC1CCCO1 (stereo not given),–,"inconclusive: 39.8 µM [inhibitor, single point]"
CCC(C)C(=O)Nc1nc2c(s1)C(=O)CC(C)(C)C2 (stereo not given),–,"inconclusive: 25.1 µM [inhibitor, single point]"
COc1ccc(-c2c3c(=O)n(C)c(=O)n(C)c3cn2-c2cc(OC)ccc2OC)cc1,–,"inconclusive: 25.1 µM [inhibitor, single point]"
Cc1cc(OCCOCCN2CCCC2)ccc1C(C)C,inactive: 1.59%,–
CC1Cn2c(nc3sc4c(c3c2=O)CCC4)N1CCO (stereo not given),inactive: -28.7%,–

SMILES,"activity change, negative = inhibition",Potency
O=c1ccc2ccc(OCc3nnc(-c4ccccc4Br)o3)cc2o1,–,"inconclusive: 25.1 µM [inhibitor, single point]"
Cc1cc(C)nc(SCCC(=O)N2CCOCC2)n1,–,"inconclusive: 31.6 µM [inhibitor, single point]"
CN1C(=O)/C(=C2\SC(=S)N(C(CCC(=O)O)C(=O)O)C2=O)c2ccccc21 (stereo not given),–,active: 12.6 µM
Cc1cc(NS(=O)(=O)c2ccccc2)cc(Cl)c1O,–,active: 25.1 µM
CCOC(=O)c1c(NC(=O)c2cccs2)sc2c1CCN(C(=O)OCC)C2,inactive: 0.101%,–
COc1ccc(S(=O)(=O)NC(C)C(=O)Nc2ccccc2F)cc1 (stereo not given),–,"inconclusive: 25.1 µM [inhibitor, single point]"
O=C(COc1ccc(S(=O)(=O)NC2CCCCC2)cc1Cl)NCc1cccnc1,–,"inconclusive: 12.6 µM [inhibitor, partial curve]"
Cc1nn(CC(=O)Nc2cccnc2N2CCOCC2)c(=O)c2ccccc12,inactive: -2.9%,–
COc1ccc2[nH]c(=O)c(CN(Cc3nnnn3Cc3ccco3)C3CCCCC3)cc2c1,–,"inconclusive: 39.8 µM [inhibitor, single point]"
COc1cccc(-c2ccc3ncnc(NCc4cccnc4)c3c2)c1,inactive: 16.4%,–
CNc1oc(-c2ccco2)nc1C#N,–,"inconclusive: 39.8 µM [inhibitor, single point]"
Cc1ccc(CNc2ccc(N3CCOCC3)c(C(=O)O)c2)s1,–,"inconclusive: 6.31 µM [inhibitor, single point]"
Oc1ccc(/C=C/c2cc(O)cc(O)c2)cc1,–,active: 31.6 µM
CCOC(=O)c1cc2c(=O)n3cccc(C)c3nc2n(CC2CCCO2)c1=NC(C)=O (stereo not given),–,"inconclusive: 39.8 µM [inhibitor, single point]"
O=C(CSc1nnc(-c2cccs2)o1)c1cccs1,–,"inconclusive: 7.94 µM [inhibitor, partial curve]"
Cc1cc(C)n(-c2nc3ccccc3nc2N2CCN(C(=O)c3ccc(F)cc3)CC2)n1,inactive: 6.08%,–
O=C(CCN1Cc2ccccc2C1)c1ccc2c(c1)OCCO2,–,"inconclusive: 3.98 µM [inhibitor, full curve, poor fit]"
COc1ccc(-c2nc(-c3cccs3)c(-c3cccs3)[nH]2)cc1O,–,"inconclusive: 25.1 µM [inhibitor, single point]"
Cc1nn(-c2nnc(C)c(=O)[nH]2)c(C)c1SCC(=O)Nc1ccc(F)cc1,–,"inconclusive: 31.6 µM [inhibitor, single point]"
COc1ccccc1NC(=O)Cc1noc(CSc2cc(C)c3ccccc3n2)n1,–,"inconclusive: 39.8 µM [inhibitor, single point]"
COC(=O)c1[nH]c2ccc(C)cc2c1NC(=O)CN1CCN(C(=O)c2ccccc2)CC1,–,active: 7.94 µM
Cc1cc(C(F)(F)F)c2c(C)nn(CCc3nn[nH]n3)c2n1,–,"inconclusive: 39.8 µM [inhibitor, single point]"
CCc1nnc2c3cnn(-c4ccc(C)c(C)c4)c3ncn12,inactive: -5.52%,–
Cc1nc(NC(=O)c2cccnc2)ccc1Br,–,"inconclusive: 20 µM [inhibitor, single point]"
O=C(Cn1ncc2c(=O)oc3ccccc3c21)NCCN1CCN(c2ccccc2F)CC1,inactive: -9.92%,–

SMILES,"activity change, negative = inhibition",Potency
COC(=O)c1oc2ccc(Br)cc2c1NC(=O)c1ccccc1,–,"inconclusive: 25.1 µM [inhibitor, partial curve]"
COC(=O)c1ccccc1NC(=O)N1CCN(S(=O)(=O)c2ccc(Cl)cc2)CC1,–,"inconclusive: 39.8 µM [inhibitor, single point]"
Cc1c(C(=O)NCCC2=CCCCC2)oc2ccc(S(=O)(=O)N3CCOCC3)cc12,inactive: -2.31%,–
Cc1cccc(-n2nc3c(c2NC(=O)c2ccc(Br)o2)CSC3)c1,–,"inconclusive: 39.8 µM [inhibitor, single point]"
Brc1ccc(C2Nc3cccc4cccc(c34)N2)o1,–,"inconclusive: 7.94 µM [inhibitor, partial curve]"
Cc1ccc(C2C(C#N)=C(N)SC(N)=C2C#N)c(C)c1,–,"inconclusive: 2 µM [inhibitor, full curve]"
CCn1c2ccccc2c2cc(C3C(C#N)=C(C)NC(C)=C3C#N)ccc21,–,"inconclusive: 31.6 µM [inhibitor, single point]"
CCn1c(CSc2nnc(-c3cccnc3)n2-c2ccccc2C)nc2cc(C(=O)O)ccc21,–,"inconclusive: 39.8 µM [inhibitor, single point]"
CCN1CCc2nc(NC(=O)c3ccc4c(c3)OCCO4)sc2C1,inactive: -25.4%,–
Cn1c(C(F)(F)F)nc2c(=O)oc3ccccc3c21,inactive: -3.65%,–
S=C(c1ccc(-c2cccc(Cl)c2)o1)N1CCOCC1,–,active: 6.31 µM
CCN(CC)CCCC(C)n1c(-c2ccccc2)nc2c(NCc3ccccc3)nc(C)nc21 (stereo not given),–,"inconclusive: 31.6 µM [inhibitor, single point]"
O=C(NCc1ccco1)c1ccc2nc3sc4c(c3c(=O)n2c1)CCCC4,–,"inconclusive: 25.1 µM [inhibitor, partial curve]"
Nc1ccc(N)c(Cl)c1,–,"inconclusive: 2.51 µM [inhibitor, full curve]"
OC1CNCc2cc3c(cc21)OCCO3 (stereo not given),inactive: -1.36%,–
CCNc1ncc2nc(C)c(=O)n(Cc3cccc(OC)c3)c2n1,–,"inconclusive: 31.6 µM [inhibitor, single point]"
COc1ncnc2c1N=C1CC(C)(C)CC(N)=C1S2,–,"inconclusive: 31.6 µM [inhibitor, single point]"
Cn1c(=O)c2c(nc3sccn32)n(C)c1=O,inactive: -9.01%,–
CCOc1ccc(NC(=O)c2oc3ccccc3c2NC(=O)C(C)C)cc1,inactive: 153%,–
Cc1cnc(CNc2ncncc2-c2c(C)noc2C)cn1,–,"inconclusive: 25.1 µM [inhibitor, single point]"
O=P(O)(O)CP(=O)(O)O,–,"inconclusive: 6.31 µM [inhibitor, single point]"
CCOC(=O)CSc1cccc2cccnc12,–,active: 12.6 µM
C=CCn1c(SCc2nc3ccccc3nc2C)nnc1-c1ccoc1C,–,"inconclusive: 12.6 µM [inhibitor, partial curve]"
COc1ccccc1N=C(C)C1=C(O)CSC1=O,–,"inconclusive: 25.1 µM [inhibitor, single point]"
CCOC(=O)C1=NO[C@@]2(C=C(Br)C3(OCCCO3)[C@H]3O[C@H]32)C1,–,"inconclusive: 3.16 µM [inhibitor, partial curve]"
